Among the data in PMC5700166 are binding signal values, retold here.

Only a part is listed here, and it is no random draw. The list includes weakly bound sequences.

The target in this experiment is T1, GST-Co-NF-kB (UniProt F1ARL5).
T1 sequence: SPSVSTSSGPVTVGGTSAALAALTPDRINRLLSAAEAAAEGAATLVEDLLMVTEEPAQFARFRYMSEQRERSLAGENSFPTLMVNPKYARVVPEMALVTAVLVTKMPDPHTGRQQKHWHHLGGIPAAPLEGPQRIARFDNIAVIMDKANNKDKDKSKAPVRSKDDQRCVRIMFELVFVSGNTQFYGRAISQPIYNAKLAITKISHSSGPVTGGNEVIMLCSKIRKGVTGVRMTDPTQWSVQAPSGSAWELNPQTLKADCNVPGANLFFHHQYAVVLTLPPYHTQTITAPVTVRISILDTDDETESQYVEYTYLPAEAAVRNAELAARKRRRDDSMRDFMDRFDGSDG
Briefly: protein-binding microarray (PBM). The following applies: PBM: ~300 nM protein, 6 mM HEPES pH 7.8, 80 mM KCl, 0.5 mM EDTA, 0.5 mM EGTA, 6% glycerol, 35 ng/ul poly-dIdC, 1% milk, 1 h, room temperature; Ap Aiptasia and Nv Nematostella (sea anemones) / Co Capsaspora / Aq Amphimedon (sponge) / Dm Drosophila / Hu human; RHD is the Rel homology domain; high values mean tight binding; most listed sequences are background and not binding sites; double strand, one strand shown.
With “CCGATTAACATCAGGAAATTCACTGATGTTAATCGGGTCTTGATTCGCTTGACGCTGCTG”, the binding signal amounted to 0.217 z-score. For the sequence “CCGATTAACATCAACACCGGCTTTGATGTTAATCGGGTCTTGATTCGCTTGACGCTGCTG”, the binding signal was -1.2 z-score. The result for “CCGATTAACATCAGGGAGATACCTGATGTTAATCGGGTCTTGATTCGCTTGACGCTGCTG” reads 1.64 z-score; that for “CCGATTAACATCATGATATCCGGTGATGTTAATCGGGTCTTGATTCGCTTGACGCTGCTG”, 0.189 z-score. In the case of “CCGATTAACATCATTTCTTACGGTGATGTTAATCGGGTCTTGATTCGCTTGACGCTGCTG” it was 0.658 z-score; in that of “CCGATTAACATCACGTTCTTTCCTGATGTTAATCGGGTCTTGATTCGCTTGACGCTGCTG”, 0.781 z-score; in that of “CCGATTAACATCACCGCAGCATGTGATGTTAATCGGGTCTTGATTCGCTTGACGCTGCTG”, -0.299 z-score. In the case of “CCGATTAACATCAAGGATATTCCTGATGTTAATCGGGTCTTGATTCGCTTGACGCTGCTG” it was -0.139 z-score; in that of “CCGATTAACATCAGAAAGTTTCCTGATGTTAATCGGGTCTTGATTCGCTTGACGCTGCTG”, -0.389 z-score; in that of “CCGATTAACATCAAAAATTCCATTGATGTTAATCGGGTCTTGATTCGCTTGACGCTGCTG”, 0.132 z-score. On to “CCGATTAACATCAACAACGGTTCTGATGTTAATCGGGTCTTGATTCGCTTGACGCTGCTG”, for which the binding signal is -0.224 z-score.

With “CCGATTAACATCACGAAAATTCCTGATGTTAATCGGGTCTTGATTCGCTTGACGCTGCTG”, the binding signal is -0.144 z-score. In turn, “CCGATTAACATCACGTACTTTCCTGATGTTAATCGGGTCTTGATTCGCTTGACGCTGCTG” returned a binding signal of 0.458 z-score. In the case of “CCGATTAACATCAAAAAACCGTTTGATGTTAATCGGGTCTTGATTCGCTTGACGCTGCTG” it was -0.127 z-score.
